Test results as given in a collection of fitness landscapes (doi:10.1016/j.celrep.2020.107928).
Whole data set: some 81,000 sequences, median “one-hybrid fitness for binding NBS DNA” near -0.1, cut for the highest 2% near 0.36. The list shows a part of the results.

B1: Caulobacter ParB omega fusion; a variant is named by its letters at X, in order, B8GW30 (parent)
chain: MESVVVGEPGMSEGRRGLGRGLSALLGEVDAAPAQAPGEQLGGSREAPIEILQRNPDQPRRTFREEDLEDLSNSIREKGVLQPILVRPSPDTAGEYQIVAGERAWRAAQRAGLKTVPIMVRELDDLAVLEIGIIENVQRADLNVLEEALSYKVLMEKFERTQENIAQTIGKSXSHVANXMRLLXLPDEVQSYLVSGELTAXHARAIAAAADPVALAKQIIEGGLSVRETEALARKAPNLSAGKSKGGRPPRVKDTDTQALESDLSSVLGLDVSIDHRGSTGTLTITYATLEQLDDLCNRLTRGI

Variants of: B1
Experiment: one-hybrid fitness for binding NBS DNA (the Noc-binding site; scaled: cognate 1, non-cognate 0); higher = stronger binding
Conditions: with NBS DNA site
Summary of the method: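 In E. coli USO, a HIS3 reporter with its site placed 19 bp from the promoter was used to select Caulobacter ParB variants randomised at four specificity codons. Growth lasted 48 hours at 37°C on histidine-free M9 containing 0.1 mM IPTG and 5 mM 3-AT. Fitness was taken as the log change in variant-to-wild-type read ratio from Illumina sequencing of pre- and post-selection plasmids, rescaled between the non-cognate and cognate sites.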

one-hybrid fitness for binding NBS DNA, ≤ 0.2:
RENN
QDAS
TSRN
AIPG
VLTN
IPPY
WDVW
WNFR
GHEC
MMVW
RMQN
ARLP
DDWG
AHKW
MRTK
QVLG
GTGY
AVSC
AGRV
PITQ
PLEK
LIVF
WTNY
LYLA
DNYG
QHWL
LMVF
QGVR
LVYW
SCAC
HENW
GPIR
LSLD
WQHR
QREF
YVPL
LAAS
GRRN
TGEC
HIYL
HSWC
QVHY
LGVG
RHFP
TGIS
TYDC
SEFG
VLWK
TREL
HRSP
PERF
YASR
WTHR
WVTT
KCHS
FHHK
PFEV
HPFP
IYAG
PNRW
TQHI
PDSG
RPRK
CHCT
TMLM
ENQS
LKTV
AMEE
GTCS
DVQG
TFVT
TVNR
FNCS
PSSQ
GTHW
VHPW
REVC
RKQF
YFYR
LRQQ
PPKN
LMDG
ACSR
SANT
IHMT
LWFG
PHRN
RWAL
KLAE
RWYS
RVDE
SNRS
RIHN
NTAY
QNCT
FGDR
STGW
HYLR
VNNS
LVVW
SRIL
QQMC
SFNT
VSVR
IHPK
LMPL
FTIN
MLQW
DIAI
CCPM
LTQY
VIKG
HSKT
TSVL
HMER
ARES
NFKR
PFKL
FMVS
LVHE
PSAQ
CQFG
QGNH
QVPF
LVTK
NHEL
SPTA
LGQH
DFVC
CTHT
ITPW
STCD
RQAG
RKRP
RHWK
RIFL
LTYI
SSVS
PGPL
EDLT
GQVY
GHCC
ERPS
YPKA
LKCH

one-hybrid fitness for binding NBS DNA, 0.502:
QCHS

one-hybrid fitness for binding NBS DNA, 0.313:
QMKD

one-hybrid fitness for binding NBS DNA, 0.305:
QAYS

one-hybrid fitness for binding NBS DNA, 0.571:
QTCT

one-hybrid fitness for binding NBS DNA, 0.349:
RTWS

one-hybrid fitness for binding NBS DNA, 0.243:
RRTQ

one-hybrid fitness for binding NBS DNA, 0.24:
NPKR

one-hybrid fitness for binding NBS DNA, 0.478:
QCRK
